# From PubChem BioAssay AID463173 (ICCB-Longwood Screening Facility, Harvard Medical School, 2010)
# Screen size: about 52,000 compounds; about 4,300 (8.3%) were called active. Rule as the data show it: active = survival mostly below about 52% (no sharp cut-off); inactive = mostly above about 56%. The list shows a part of the results.
# Test system: DeltatarO mutant
# Test: growth inhibition of S. aureus wild type versus tarO mutant, primary screen, teichoic acid synthesis inhibitors, RN4220, OD600 (AID 463173)
# Conditions: OD600, 18 h, hits give low values, screened at 18.75 µg/mL (by protocol)
row,SMILES,survival
1,COc1ccccc1NC(=O)c1oc2ccccc2c1NC(=O)C1CCCCC1,active: 43%
2,CCOC(=O)c1ccc(CN(Cc2ccccc2C)S(=O)(=O)c2ccc(F)c(C)c2)cc1,inactive: 80%
3,COCCNc1oc(/C=C/c2ccc(F)cc2)nc1C#N,inactive: 82%
4,Cc1cc(C)nc(Nc2ccc(O)cc2)n1,inactive: 91%
5,COc1ccc(Nc2ncnc3c2cnn3-c2ccc(C)cc2)cc1Cl,inactive: 128%
6,CCCCOc1ccc(-c2nnn(C(C)(C)C(=O)O)n2)cc1,inactive: 99%
7,CCC(=O)N1CCc2cc(Br)cc(S(=O)(=O)CCC(=O)NCc3cccc(OC)c3)c21,inactive: 60%
8,Cc1ccc(Cn2c(C(=O)O)c(CNC3CCCC3)c3ccc(C)cc32)cc1,inactive: 83%
9,CCNC(=S)N1CCN(Cc2ccccc2)CC1,inactive: 113%
10,Cc1ccc(OCc2ccc(-c3nc(C#N)c(NCc4ccccc4Cl)o3)o2)cc1,inactive: 100%
11,O=C(Nc1ccccc1C(F)(F)F)N1CCC(CN2CCc3ccccc3C2)CC1,inactive: 67%
12,Cc1cc(C)cc(-n2c(SCC(N)=O)nc3c([nH]c4ccccc43)c2=O)c1,inactive: 101%
13,COc1ccc(C)cc1NC(=O)C(Cc1ccccc1)NS(=O)(=O)c1cccs1 (centres undefined),inactive: 84%
14,O=C(NC1CC(=O)N(c2cccc(F)c2)C1)c1cc2ccccc2o1 (centres undefined),inactive: 99%
15,COc1ccc(N2CCN(Cc3nnnn3CCc3ccccc3)CC2)cc1,inactive: 64%
16,CCCCn1c(=NC(=O)c2cc3ccccc3o2)c(C(=O)OCC)cc2c(=O)n3ccccc3nc21,inactive: 107%
17,O=C(Cn1c(=O)oc2cc(S(=O)(=O)N3CCCCC3)ccc21)NCc1ccc(Cl)cc1,inactive: 66%
18,Cc1ccn(C(=O)COc2ccc(Cl)cc2)n1,inactive: 99%
19,Cc1cc2nc3n(c2cc1C)CCCN3,inactive: 51%
20,O=C(Oc1ccc(Cl)cc1)c1cc(-c2ccc3c(c2)OCCO3)on1,inactive: 116%

row,SMILES,survival
1,Cc1ccc(-n2c(=O)c3c(cnn3C)n(CC(=O)Nc3ccccc3C)c2=O)cc1,inactive: 81%
2,Cc1ccc(CNC(=O)CCCn2c(=O)[nH]c3ccc(Br)cc3c2=O)cc1,inactive: 87%
3,COc1ccc2nc(C)cc(Nc3ccc(Cl)c(Cl)c3)c2c1,inactive: 62%
4,COc1ccc(NC(=S)N(Cc2ccco2)Cc2cc3cc(C)c(C)cc3[nH]c2=O)cc1,active: 38%
5,COc1cccc(-c2noc(COc3ccccc3Cl)n2)c1,inactive: 81%
6,CC(C)Oc1ccc(CCN=C(N)N=C(N)N)cc1Cl,inactive: 100%
7,Cc1ccc(Cl)cc1NC(=O)CSc1nc2ccccc2nc1Cc1ccccc1,inactive: 80%
8,COc1ccc(Cn2ccnc2SCC(=O)NCc2ccco2)cc1,inactive: 75%
9,COc1ccc(-c2onc(C)c2C)cc1S(=O)(=O)NCC1CCN(Cc2cc(C)ccc2C)CC1,inactive: 100%
10,CCn1c(=O)c2cc(C(=O)NCCCN3CCC(C)CC3)sc2c2ccccc21,inactive: 101%
11,COC(=O)c1ccccc1NC(=O)c1ccc2nc(CCc3ccccc3)oc2c1,inactive: 131%
12,CCc1ccccc1NC(=O)N1CCN(C(=O)c2nsc3ccccc23)CC1,active: 17%
13,CCc1ccc(NC(=O)CC2C(=O)N(c3cccc(C)c3)C(=O)N2Cc2ccco2)cc1 (centres undefined),inactive: 118%
14,CC1CCN(S(=O)(=O)c2ccc3c(ccn3CCC(=O)NCc3ccc(N(C)C)cc3)c2)CC1,inactive: 94%
15,O=C(Nc1ccc(F)c(Cl)c1)C1CCCN(c2cnccn2)C1 (centres undefined),inactive: 87%
16,COc1ccc(CC2C(=O)Nc3ccc(Br)cc32)cc1OC (centres undefined),inactive: 82%
17,COc1ccc(NC(=O)CCc2c(C)nc3nc(CNC(=O)OC(C)(C)C)nn3c2C)cc1OC,inactive: 83%
18,COc1ccc(S(=O)(=O)NCC(c2ccco2)N2CCN(c3ccc(F)cc3)CC2)cc1C (centres undefined),inactive: 83%
19,CCOc1ccccc1C(=O)N(Cc1ccccc1F)C1CCS(=O)(=O)C1 (centres undefined),inactive: 75%
20,COC(=O)c1cn(C(=O)OC)c2ccccc12,inactive: 92%

row,SMILES,survival
1,Cc1ccc(-c2nnc3ccccc3c2C(=O)Nc2ccccc2F)cc1,inactive: 68%
2,Cc1ccc(NC(=O)Cn2c(=O)n(CCC(=O)NCc3ccccc3Cl)c(=O)c3ccccc32)cc1,inactive: 107%
3,COc1cc(NC(=O)C(CCSC)NS(=O)(=O)c2ccc3c(c2)oc(=O)n3C)cc(OC)c1 (centres undefined),inactive: 55%
4,S=C1N(CN2CCOCC2)CCN1CN1CCOCC1,inactive: 82%
5,O=C(NCc1ccccn1)C1C2C=CC(C2)C1C(=O)Nc1ccc(F)cc1 (centres undefined),inactive: 110%
6,O=C(CCC1CCCC1)N1CCCC(c2nc(-c3ccc(F)cc3)no2)C1 (centres undefined),inactive: 83%
7,COc1ccc(Cl)cc1NC(=O)CSc1cn(CC(=O)N2CCCCCC2)c2ccccc12,inactive: 80%
8,CCNc1nc(NC(C)(C)C)nc(Oc2ccc(=O)n(C)n2)n1,inactive: 68%
9,O=C(NCCc1ccccc1)C(=O)NCC(c1ccc2c(c1)OCO2)N1CCOCC1 (centres undefined),inactive: 89%
10,CCS(=O)(=O)N1CCc2cc(C(=O)NCCc3ccc(OC)cc3)ccc21,inactive: 105%
11,CC1CCN(S(=O)(=O)c2nnc(NC(=O)c3cccc(Br)c3)s2)CC1,active: 31%
12,COc1cc(NC(=O)CC(C)n2nc(C)cc2C)cc(OC)c1 (centres undefined),inactive: 93%
13,COc1ccc(-c2onc(C)c2C)cc1S(=O)(=O)NCC1CCN(Cc2cccc(F)c2)CC1,inactive: 95%
14,CC1=C(c2ccc(Cl)cc2)S(=O)(=O)N=C1N1CCC(C(=O)NCc2ccccc2F)CC1,inactive: 70%
15,COc1ccc(CCNc2nc3c(-c4cccc(C)c4)nnn3c3ccccc23)cc1OC,inactive: 122%
16,Cc1ccc(-n2c(=O)c3c(c4cc(C)ccc4n3C)n(CC(=O)NCc3ccccc3)c2=O)cc1,inactive: 74%
17,CC(=O)Nc1ccc(NC(=O)C(C)C)nc1,inactive: 74%
18,COc1ccccc1NC(=O)CSc1nc(-c2ccccc2F)nc2cc(=O)[nH]n12,inactive: 71%
19,COc1ccc(NC(=O)c2c(NCc3cccc(OC)c3)sc3c2CCCC3)cc1,inactive: 86%
